How the values were obtained:
Phytophthora infestans = system: Phytophthora infestans; design: key: Grade “A” was selected when there is no plant with lesions or no withered plant; grade “B” was selected when the number of diseased plants, which include plants with lesions or withered plants, is around 10% among the total numbers of plants; Grade “C” was selected when the number of diseased plant is around 25%; grade “D” was selected when the diseased plants exceed 50%; settings: tomato foliage spray, effective component 250 ppm, degree of disease after 5 days
Description: (§1) The effectiveness of the compounds obtained by the present invention against various plant diseases will be hereinafter described with reference to following test examples. The status of the test plants at the time of testing the control effects of the present chemicals, that is, the degree of lesions appearing on foliage or the number of plants attacked by Phytophthora are visually observed, and the results were evaluated by four grades “A”, “B”, “C”, and “D”. Grade “A” was selected when there is no plant with lesions or no withered plant, and grade “B” was selected when the number of diseased plants, which include plants with lesions or withered plants, is around 10% among the total numbers of plants. Grade “C” was selected when the number of diseased plant is around 25%, and grade “D” was selected when the diseased plants exceed 50%.
The water-dipersable powder prepared by the method shown in Formulation Example 2 was diluted with water containing a surface active agent (0.02%) so as to contain the effective component at a concentration of 250 ppm. The thus prepared solution was sprayed on foliage at the 3 to 4 leaf stage of tomatoes (variety: Toyofuku) which were grown in plastic pots with a diameter of 9 cm. […] After 5 days, the degree of disease was determined. […]

Pythium aphanidermatum = assay: Control test of a plant disease caused by Pythium aphanidermatum (cucumber, soil drench); design: key: Grade “A” was selected when there is no plant with lesions or no withered plant; grade “B” was selected when the number of diseased plants, which include plants with lesions or withered plants, is around 10% among the total numbers of plants; Grade “C” was selected when the number of diseased plant is around 25%; grade “D” was selected when the diseased plants exceed 50%; settings: cucumber seeds, soil drench 1,000 ppm, 4 days
Description: as §1
A mixture of sterilized soil and Pythium aphanidermatum was put in a deep petri-dish with a diameter of 15 cm. After seeding 10 seeds of cucumber (variety: Nouryoku Shintokiwa) for each pot, a water-diluted dispersion of water-dispersible powder prepared according to the Formulating Example 2 at the effective component concentration of 1,000 ppm was drenched on the soil. After drenched, the pot was placed in a wet room and was subjected to a weathering instrument with a day-length of 14 hours for 4 days. The degree of the plant disease was determined. […]

Pyricularia oryzae = assay type: in vivo; design: key: Grade “A” was selected when there is no plant with lesions or no withered plant; grade “B” was selected when the number of diseased plants, which include plants with lesions or withered plants, is around 10% among the total numbers of plants; Grade “C” was selected when the number of diseased plant is around 25%; grade “D” was selected when the diseased plants exceed 50%; settings: rice foliage spray, effective component 250 ppm, degree of disease after 7 days
[1] = system: Pseudoperonospora cubensis (a metalaxyl resistant fungi strain); assay: Control test of plant disease caused by Pseudoperonospora cubensis (leaf disc test; Test Examples 3 and 8); settings: cucumber leaf disc immersed 30 minutes at 10 ppm, 7 days
[2] = system: (B) metalaxyl-resistant Plasmopara viticola; assay: Control test of plant disease caused by Plasmopara viticola (leaf disc test), fungi (B) (Test Examples 4 and 9); settings: vine leaf disc immersed 30 min at 10 ppm, cultured seven days
Description: The effectiveness of the compounds obtained by the present invention against various plant diseases will be hereinafter described with reference to following test examples. The status of the test plants at the time of testing the control effects of the present chemicals, that is, the degree of lesions appearing on foliage or the number of plants attacked by Phytophthora are visually observed, and the results were evaluated by four grades “A”, “B”, “C”, and “D”. Grade “A” was selected when there is no plant with lesions or no withered plant, and grade “B” was selected when the number of diseased plants, which include plants with lesions or withered plants, is around 10% among the total numbers of plants. Grade “C” was selected when the number of diseased plant is around 25%, and grade “D” was selected when the diseased plants exceed 50%. A leaf disc formed by stamping a leaf of an alley grown vine (variety: neo masukatto) was immersed in a chemical-containing solution which was prepared using a water-dispersible powder at an effective component concentration of 10 ppm for 30 min. […] A control test was executed by the same method as that shown in Test Example 4.

[3] = system: (A) metalaxyl-sensitive Plasmopara viticola; assay: Control test of plant disease caused by Plasmopara viticola (leaf disc test), fungi (A) (Test Examples 4 and 9); settings: vine leaf disc immersed 30 min at 10 ppm, cultured seven days

Compound	Evaluation (Phytophthora infestans)	Evaluation (Pythium aphanidermatum)	Evaluation (Pyricularia oryzae)	Evaluation [1]	Evaluation Metalaxyl-resistant Plasmopara viticola B [2]	Evaluation Metalaxyl-sensitive Plasmopara viticola A [3]
Cc1snnc1/C(=N\OCc1ccccn1)c1ccccc1 [1-(a)-1, (Z)-(5-methyl-1,2,3-thiadiazol-4-yl) phenylmethanone O-(2-pyrydyl)-methyl oxime]	A	A	A	–	–	–
Cc1nsnc1C(=NOCc1csc(NC(=O)C(C)C)n1)c1ccccc1 [8-(b)-7]	A	A	–	–	–	–
COCC(=O)N(c1c(C)cccc1C)C(C)C(=O)OC (stereo not shown) [Metalaxyl, metalaxyl, reference compound]	–	–	–	D (grade “D” was selected when the diseased plants exceed 50%)	D (grade “D” was selected when the diseased plants exceed 50%)	–
manzeb [reference compound]	–	–	–	C (Grade “C” was selected when the number of diseased plant is around 25%)	C (Grade “C” was selected when the number of diseased plant is around 25%)	C (Grade “C” was selected when the number of diseased plant is around 25%)

Reference: US6340697B1, “Oxime derivatives and agricultural chemicals containing the same” (Dainippon Ink and Chemicals, Inc., priority 1997, dated 2002)
